# Results reported in the supplement of paper PMC8728848.
# The list shows a part of the results.
# Experiments:
# Assay in all cases: glycan array binding signal (z-score within array); higher = stronger binding
# Conditions in all cases: glycan notation: IUPAC condensed, linker removed; mutation: A146Q
# [1] = biological target: Neu5Ac(a2-3)Gal(b1-4)GlcNAc
# Summary of the method: (§1)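 From the Consortium for Functional Glycomics database, 3228 arrays were curated, keeping only those whose protein sequence was available. Binding is given as a within-array Z-score averaged across arrays sharing a protein sequence and across linkers. Negative Z-scores can be read as non-binding.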
# [2] = biological target: Neu5Ac(a2-3)Gal(b1-4)GlcNAc(b1-2)Man(a1-3)[GlcNAc(b1-2)Man(b1-4)GlcNAc(b1-2)Man(a1-6)]Man(b1-4)GlcNAc(b1-4)GlcNAc
# Summary of the method: as §1
# [3] = biological target: Neu5Ac(a2-3)Gal(b1-4)GlcNAc(b1-2)Man(a1-3)[Neu5Ac(a2-6)Gal(b1-4)GlcNAc(b1-2)Man(a1-6)]Man(b1-4)GlcNAc(b1-4)GlcNAc
# Summary of the method: as §1
# [4] = biological target: Neu5Ac(a2-3)Gal(b1-4)GlcNAc(b1-3)Gal(b1-3)GlcNAc
# Summary of the method: as §1
# [5] = biological target: Neu5Ac(a2-3)Gal(b1-4)GlcNAc(b1-3)Gal(b1-4)GlcNAc
# Summary of the method: as §1
# [6] = biological target: Neu5Ac(a2-3)Gal(b1-4)GlcNAc(b1-3)Gal(b1-4)GlcNAc(b1-3)Gal(b1-4)GlcNAc
# Summary of the method: as §1
# [7] = biological target: Neu5Ac(a2-3)Gal(b1-4)GlcNAc(b1-3)Gal(b1-4)[Fuc(a1-3)]GlcNAc
# Summary of the method: as §1
# [8] = biological target: Neu5Ac(a2-3)Gal(b1-4)GlcNAc(b1-3)GalNAc
# Summary of the method: as §1
# [9] = biological target: Neu5Ac(a2-3)Gal(b1-4)GlcNAc(b1-6)[Gal(b1-3)]GalNAc
# Summary of the method: as §1
# [10] = biological target: Neu5Ac(a2-3)Gal(b1-4)GlcNAc(b1-6)[Neu5Ac(a2-3)Gal(b1-3)]GalNAc
# Summary of the method: as §1
# [11] = biological target: Neu5Ac(a2-3)Gal(b1-4)GlcNAc6S
# Summary of the method: as §1
# [12] = biological target: Neu5Ac(a2-3)Gal(b1-4)[Fuc(a1-3)]GlcNAc
# Summary of the method: as §1
# [13] = biological target: Neu5Ac(a2-3)Gal(b1-4)[Fuc(a1-3)]GlcNAc(b1-3)Gal
# Summary of the method: as §1
# [14] = biological target: Neu5Ac(a2-3)Gal(b1-4)[Fuc(a1-3)]GlcNAc(b1-3)Gal(b1-4)GlcNAc
# Summary of the method: as §1
# [15] = biological target: Neu5Ac(a2-3)Gal(b1-4)[Fuc(a1-3)]GlcNAc(b1-3)Gal(b1-4)[Fuc(a1-3)]GlcNAc(b1-3)Gal(b1-4)[Fuc(a1-3)]GlcNAc
# Summary of the method: as §1
# [16] = biological target: Neu5Ac(a2-3)Gal(b1-4)[Fuc(a1-3)]GlcNAc(b1-3)GalNAc
# Summary of the method: as §1
# [17] = biological target: Neu5Ac(a2-3)Gal(b1-4)[Fuc(a1-3)]GlcNAc(b1-6)[Gal(b1-3)]GalNAc
# Summary of the method: as §1
# [18] = biological target: Neu5Ac(a2-3)Gal(b1-4)[Fuc(a1-3)]GlcNAc(b1-6)[Neu5Ac(a2-3)Gal(b1-3)]GalNAc
# Summary of the method: as §1
# [19] = biological target: Neu5Ac(a2-3)Gal(b1-4)[Fuc(a1-3)]GlcNAc6S
# Summary of the method: as §1
# [20] = biological target: Neu5Ac(a2-3)Gal6S(b1-4)GlcNAc
# Summary of the method: as §1
# [21] = biological target: Neu5Ac(a2-3)Gal6S(b1-4)[Fuc(a1-3)]GlcNAc
# Summary of the method: as §1
# [22] = biological target: Neu5Ac(a2-3)GalNAc
# Summary of the method: as §1
# [23] = biological target: Neu5Ac(a2-3)GalNAc(b1-4)GlcNAc
# Summary of the method: as §1
# [24] = biological target: Neu5Ac(a2-3)[GalNAc(b1-4)]Gal(b1-4)Glc
# Summary of the method: as §1
# [25] = biological target: Neu5Ac(a2-3)[GalNAc(b1-4)]Gal(b1-4)GlcNAc
# Summary of the method: as §1
# [26] = biological target: Neu5Ac(a2-3)[GalNAc(b1-4)]Gal(b1-4)GlcNAc(b1-3)GalNAc
# Summary of the method: as §1
# [27] = biological target: Neu5Ac(a2-3)[Neu5Ac(a2-6)]GalNAc
# Summary of the method: as §1
# [28] = biological target: Neu5Ac(a2-6)Gal
# Summary of the method: as §1
# [29] = biological target: Neu5Ac(a2-6)Gal(b1-4)Glc
# Summary of the method: as §1
# [30] = biological target: Neu5Ac(a2-6)Gal(b1-4)GlcNAc
# Summary of the method: as §1
# [31] = biological target: Neu5Ac(a2-6)Gal(b1-4)GlcNAc(b1-2)Man(a1-3)Man(b1-4)GlcNAc(b1-4)GlcNAc
# Summary of the method: as §1
# [32] = biological target: Neu5Ac(a2-6)Gal(b1-4)GlcNAc(b1-2)Man(a1-3)[Gal(b1-4)GlcNAc(b1-2)Man(a1-6)]Man(b1-4)GlcNAc(b1-4)GlcNAc
# Summary of the method: as §1
# [33] = biological target: Neu5Ac(a2-6)Gal(b1-4)GlcNAc(b1-2)Man(a1-3)[GlcNAc(b1-2)Man(a1-6)]Man(b1-4)GlcNAc(b1-4)GlcNAc
# Summary of the method: as §1
# [34] = biological target: Neu5Ac(a2-6)Gal(b1-4)GlcNAc(b1-2)Man(a1-3)[GlcNAc(b1-2)Man(b1-4)GlcNAc(b1-2)Man(a1-6)]Man(b1-4)GlcNAc(b1-4)GlcNAc
# Summary of the method: as §1
# [35] = biological target: Neu5Ac(a2-6)Gal(b1-4)GlcNAc(b1-2)Man(a1-3)[Man(a1-6)]Man(b1-4)GlcNAc(b1-4)GlcNAc
# Summary of the method: as §1
binder,measurement,setting,value
"Gal 3 (Homo sapiens), P17931 (protein) MADNFSLHDALSGSGNPNPQGWPGAWGNQPAGAGGYPGASYPGAYPGQAPPGAYPGQAPPGAYHGAPGAYPGAPAPGVYPGPPSGPGAYPSSGQPSAPGAYPATGPYGAPAGPLIVPYNLPLPGGVVPRMLITILGTVKPNANRIQLDFQRGNDVAFHFNPRFNENNRRVIVCNTKLDNNWGREERQSVFPFESGKPFKIQVLVEPDHFKVAVNDAHLLQYNHRVKKLNEISKLGISGDIDLTSASYTMI",glycan array binding signal (z-score),[1],-0.188
same,glycan array binding signal (z-score),[2],0.025
same,glycan array binding signal (z-score),[3],-0.182
same,glycan array binding signal (z-score),[4],-0.196
same,glycan array binding signal (z-score),[5],-0.188
same,glycan array binding signal (z-score),[6],0.494
same,glycan array binding signal (z-score),[7],-0.193
same,glycan array binding signal (z-score),[8],-0.171
same,glycan array binding signal (z-score),[9],-0.204
same,glycan array binding signal (z-score),[10],-0.198
same,glycan array binding signal (z-score),[11],-0.133
same,glycan array binding signal (z-score),[12],-0.194
same,glycan array binding signal (z-score),[13],-0.186
same,glycan array binding signal (z-score),[14],-0.197
same,glycan array binding signal (z-score),[15],-0.202
same,glycan array binding signal (z-score),[16],-0.15
same,glycan array binding signal (z-score),[17],-0.189
same,glycan array binding signal (z-score),[18],-0.144
same,glycan array binding signal (z-score),[19],-0.188
same,glycan array binding signal (z-score),[20],-0.183
same,glycan array binding signal (z-score),[21],-0.201
same,glycan array binding signal (z-score),[22],-0.201
same,glycan array binding signal (z-score),[23],-0.199
same,glycan array binding signal (z-score),[24],-0.2
same,glycan array binding signal (z-score),[25],-0.202
same,glycan array binding signal (z-score),[26],-0.166
same,glycan array binding signal (z-score),[27],-0.189
same,glycan array binding signal (z-score),[28],-0.197
same,glycan array binding signal (z-score),[29],-0.192
same,glycan array binding signal (z-score),[30],-0.191
same,glycan array binding signal (z-score),[31],-0.198
same,glycan array binding signal (z-score),[32],-0.198
same,glycan array binding signal (z-score),[33],-0.195
same,glycan array binding signal (z-score),[34],-0.134
same,glycan array binding signal (z-score),[35],-0.19
